# Data reported in the supplement of paper PMC8728848.
# Some of the results follow.
# B1: FliC (Pseudomonas aeruginosa), P72151 (protein)
# chain: MALTVNTNIASLNTQRNLNASSNDLNTSLQRLTTGYRINSAKDDAAGLQISNRLSNQISGLNVATRNANDGISLAQTAEGALQQSTNILQRIRDLALQSANGSNSDADRAALQKEVAAQQAELTRISDTTTFGGRKLLDGSFGTTSFQVGSNAYETIDISLQNASASAIGSYQVGSNGAGTVASVAGTATASGIASGTVNLVGGGQVKNIAIAAGDSAKAIAEKMDGAIPNLSARARTVFTADVSGVTGGSLNFDVTVGSNTVSLAGVTSTQDLADQLNSNSSKLGITASINDKGVLTITSATGENVKFGAQTGTATAGQVAVKVQGSDGKFEAAAKNVVAAGTAATTTIVTGYVQLNSPTAYSVSGTGTQASQVFGNASAAQKSSVASVDISTADGAQNAIAVVDNALAAIDAQRADLGAVQNRFKNTIDNLTNISENATNARSRIKDTDFAAETAALSKNQVLQQAGTAILAQANQLPQAVLSLLR
# Columns and labels:
# Assay in all cases: glycan array binding signal (z-score within array); higher = stronger binding
# Conditions in all cases: glycan notation: IUPAC condensed, linker removed
# [1] = biological target: Neu5Ac(a2-3)GalNAc
# Outline: (§1)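 Glycan array data were curated from 3228 arrays in the Consortium for Functional Glycomics database and kept only where the protein sequence was available. Glycan names were converted to IUPAC-condensed notation, and columns mapping to the same glycan were averaged. The binding signal is a within-array Z-score, averaged across arrays of the same protein sequence at different concentrations or buffers and across linkers. Negative Z-scores can be read as non-binding.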
# [2] = biological target: Neu5Ac(a2-3)GalNAc(b1-4)GlcNAc
# Outline: as §1
# [3] = biological target: Neu5Ac(a2-3)[GalNAc(b1-4)]Gal(b1-4)Glc
# Outline: as §1
# [4] = biological target: Neu5Ac(a2-3)[GalNAc(b1-4)]Gal(b1-4)GlcNAc
# Outline: as §1
# [5] = biological target: Neu5Ac(a2-3)[GalNAc(b1-4)]Gal(b1-4)GlcNAc(b1-3)GalNAc
# Outline: as §1
# [6] = biological target: Neu5Ac(a2-3)[Neu5Ac(a2-6)]GalNAc
# Outline: as §1
# [7] = biological target: Neu5Ac(a2-6)Gal
# Outline: as §1
# [8] = biological target: Neu5Ac(a2-6)Gal(b1-3)GlcNAc(b1-3)[Gal(b1-4)GlcNAc(b1-6)]Gal(b1-4)Glc
# Outline: as §1
# [9] = biological target: Neu5Ac(a2-6)Gal(b1-4)Glc
# Outline: as §1
# [10] = biological target: Neu5Ac(a2-6)Gal(b1-4)GlcNAc
# Outline: as §1
# [11] = biological target: Neu5Ac(a2-6)Gal(b1-4)GlcNAc(b1-2)Man
# Outline: as §1
# [12] = biological target: Neu5Ac(a2-6)Gal(b1-4)GlcNAc(b1-2)Man(a1-3)Man(b1-4)GlcNAc(b1-4)GlcNAc
# Outline: as §1
# [13] = biological target: Neu5Ac(a2-6)Gal(b1-4)GlcNAc(b1-2)Man(a1-3)[Gal(b1-4)GlcNAc(b1-2)Man(a1-6)]Man(b1-4)GlcNAc(b1-4)GlcNAc
# Outline: as §1
# [14] = biological target: Neu5Ac(a2-6)Gal(b1-4)GlcNAc(b1-2)Man(a1-3)[GlcNAc(b1-2)Man(a1-6)]Man(b1-4)GlcNAc(b1-4)GlcNAc
# Outline: as §1
# [15] = biological target: Neu5Ac(a2-6)Gal(b1-4)GlcNAc(b1-2)Man(a1-3)[GlcNAc(b1-4)][Neu5Ac(a2-6)Gal(b1-4)GlcNAc(b1-2)Man(a1-6)]Man(b1-4)GlcNAc(b1-4)GlcNAc
# Outline: as §1
# [16] = biological target: Neu5Ac(a2-6)Gal(b1-4)GlcNAc(b1-2)Man(a1-3)[Man(a1-6)]Man(b1-4)GlcNAc(b1-4)GlcNAc
# Outline: as §1
# [17] = biological target: Neu5Ac(a2-6)Gal(b1-4)GlcNAc(b1-2)Man(a1-3)[Neu5Ac(a2-3)Gal(b1-4)GlcNAc(b1-2)Man(a1-6)]Man(b1-4)GlcNAc(b1-4)GlcNAc
# Outline: as §1
# [18] = biological target: Neu5Ac(a2-6)Gal(b1-4)GlcNAc(b1-2)Man(a1-3)[Neu5Ac(a2-6)Gal(b1-4)GlcNAc(b1-2)Man(a1-6)]Man(b1-4)GlcNAc(b1-4)GlcNAc
# Outline: as §1
# [19] = biological target: Neu5Ac(a2-6)Gal(b1-4)GlcNAc(b1-2)Man(a1-3)[Neu5Ac(a2-6)Gal(b1-4)GlcNAc(b1-2)Man(a1-6)]Man(b1-4)GlcNAc(b1-4)[Fuc(a1-6)]GlcNAc
# Outline: as §1
# [20] = biological target: Neu5Ac(a2-6)Gal(b1-4)GlcNAc(b1-2)Man(a1-6)Man(b1-4)GlcNAc(b1-4)GlcNAc
# Outline: as §1
# [21] = biological target: Neu5Ac(a2-6)Gal(b1-4)GlcNAc(b1-2)Man(a1-6)[Gal(b1-4)GlcNAc(b1-2)Man(a1-3)]Man(b1-4)GlcNAc(b1-4)GlcNAc
# Outline: as §1
# [22] = biological target: Neu5Ac(a2-6)Gal(b1-4)GlcNAc(b1-2)Man(a1-6)[GlcNAc(b1-2)Man(a1-3)]Man(b1-4)GlcNAc(b1-4)GlcNAc
# Outline: as §1
# [23] = biological target: Neu5Ac(a2-6)Gal(b1-4)GlcNAc(b1-2)Man(a1-6)[Man(a1-3)]Man(b1-4)GlcNAc(b1-4)GlcNAc
# Outline: as §1
# [24] = biological target: Neu5Ac(a2-6)Gal(b1-4)GlcNAc(b1-2)[Neu5Ac(a2-6)Gal(b1-4)GlcNAc(b1-4)]Man(a1-3)[GlcNAc(b1-4)][Neu5Ac(a2-6)Gal(b1-4)GlcNAc(b1-2)[Neu5Ac(a2-6)Gal(b1-4)GlcNAc(b1-6)]Man(a1-6)]Man(b1-4)GlcNAc(b1-4)GlcNAc
# Outline: as §1
# [25] = biological target: Neu5Ac(a2-6)Gal(b1-4)GlcNAc(b1-2)[Neu5Ac(a2-6)Gal(b1-4)GlcNAc(b1-4)]Man(a1-3)[GlcNAc(b1-4)][Neu5Ac(a2-6)Gal(b1-4)GlcNAc(b1-4)Man(a1-6)]Man(b1-4)GlcNAc(b1-4)GlcNAc
# Outline: as §1
# [26] = biological target: Neu5Ac(a2-6)Gal(b1-4)GlcNAc(b1-2)[Neu5Ac(a2-6)Gal(b1-4)GlcNAc(b1-6)]Man(a1-6)[Neu5Ac(a2-6)Gal(b1-4)GlcNAc(b1-2)Man(a1-3)][GlcNAc(b1-4)]Man(b1-4)GlcNAc(b1-4)GlcNAc
# Outline: as §1
# [27] = biological target: Neu5Ac(a2-6)Gal(b1-4)GlcNAc(b1-3)Gal(b1-3)GlcNAc
# Outline: as §1
# [28] = biological target: Neu5Ac(a2-6)Gal(b1-4)GlcNAc(b1-3)Gal(b1-4)GlcNAc
# Outline: as §1
# [29] = biological target: Neu5Ac(a2-6)Gal(b1-4)GlcNAc(b1-3)Gal(b1-4)GlcNAc(b1-2)Man(a1-3)[Neu5Ac(a2-6)Gal(b1-4)GlcNAc(b1-3)Gal(b1-4)GlcNAc(b1-2)Man(a1-6)]GalNAc
# Outline: as §1
# [30] = biological target: Neu5Ac(a2-6)Gal(b1-4)GlcNAc(b1-3)Gal(b1-4)GlcNAc(b1-3)Gal(b1-4)GlcNAc
# Outline: as §1
# [31] = biological target: Neu5Ac(a2-6)Gal(b1-4)GlcNAc(b1-3)Gal(b1-4)GlcNAc(b1-3)Gal(b1-4)GlcNAc(b1-2)Man(a1-3)[Neu5Ac(a2-6)Gal(b1-4)GlcNAc(b1-3)Gal(b1-4)GlcNAc(b1-3)Gal(b1-4)GlcNAc(b1-2)Man(a1-6)]GalNAc
# Outline: as §1
# [32] = biological target: Neu5Ac(a2-6)Gal(b1-4)GlcNAc(b1-3)Gal(b1-4)GlcNAc(b1-3)GalNAc
# Outline: as §1
# [33] = biological target: Neu5Ac(a2-6)Gal(b1-4)GlcNAc(b1-3)Gal(b1-4)GlcNAc(b1-3)[Neu5Ac(a2-6)Gal(b1-4)GlcNAc(b1-3)Gal(b1-4)GlcNAc(b1-6)]GalNAc
# Outline: as §1
# [34] = biological target: Neu5Ac(a2-6)Gal(b1-4)GlcNAc(b1-3)Gal(b1-4)GlcNAc(b1-6)[Gal(b1-3)]GalNAc
# Outline: as §1
# [35] = biological target: Neu5Ac(a2-6)Gal(b1-4)GlcNAc(b1-3)Gal(b1-4)[Fuc(a1-3)]GlcNAc(b1-3)Gal(b1-4)[Fuc(a1-3)]GlcNAc
# Outline: as §1
# [36] = biological target: Neu5Ac(a2-6)Gal(b1-4)GlcNAc(b1-3)GalNAc
# Outline: as §1
# [37] = biological target: Neu5Ac(a2-6)Gal(b1-4)GlcNAc(b1-3)[Neu5Ac(a2-6)Gal(b1-4)GlcNAc(b1-6)]GalNAc
# Outline: as §1
binder,measurement,setting,value
B1,glycan array binding signal (z-score),[1],-0.254
same,glycan array binding signal (z-score),[2],-0.187
same,glycan array binding signal (z-score),[3],-0.175
same,glycan array binding signal (z-score),[4],-0.214
same,glycan array binding signal (z-score),[5],-0.182
same,glycan array binding signal (z-score),[6],-0.036
same,glycan array binding signal (z-score),[7],-0.149
same,glycan array binding signal (z-score),[8],-0.18
same,glycan array binding signal (z-score),[9],-0.195
same,glycan array binding signal (z-score),[10],-0.162
same,glycan array binding signal (z-score),[11],-0.267
same,glycan array binding signal (z-score),[12],-0.121
same,glycan array binding signal (z-score),[13],-0.173
same,glycan array binding signal (z-score),[14],-0.066
same,glycan array binding signal (z-score),[15],-0.149
same,glycan array binding signal (z-score),[16],-0.119
same,glycan array binding signal (z-score),[17],0.077
same,glycan array binding signal (z-score),[18],-0.11
same,glycan array binding signal (z-score),[19],-0.156
same,glycan array binding signal (z-score),[20],-0.124
same,glycan array binding signal (z-score),[21],-0.041
same,glycan array binding signal (z-score),[22],-0.153
same,glycan array binding signal (z-score),[23],-0.157
same,glycan array binding signal (z-score),[24],-0.061
same,glycan array binding signal (z-score),[25],-0.101
same,glycan array binding signal (z-score),[26],-0.173
same,glycan array binding signal (z-score),[27],-0.117
same,glycan array binding signal (z-score),[28],-0.237
same,glycan array binding signal (z-score),[29],0.04
same,glycan array binding signal (z-score),[30],-0.192
same,glycan array binding signal (z-score),[31],0.007
same,glycan array binding signal (z-score),[32],-0.193
same,glycan array binding signal (z-score),[33],-0.127
same,glycan array binding signal (z-score),[34],-0.192
same,glycan array binding signal (z-score),[35],-0.134
same,glycan array binding signal (z-score),[36],1.07
same,glycan array binding signal (z-score),[37],-0.028
